Laboratory results published in the supplement of paper PMC4604168 (melanoma cell lines).
The list shows a part of the results. Single values are uncertain, as repeats are few or missing.

Tests used:
Assay in all cases: cell count relative to DMSO control; melanoma cells; higher = more viable cells
Conditions in all cases: library dose: low library concentration; 72 h
WM115 = test system: WM115
WM1716 = test system: WM1716
WM1745 = test system: WM1745
WM3526 = test system: WM3526
WM3619 = test system: WM3619
WM451Lu = test system: WM451Lu
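Further: cell number obtained by counting DAPI-stained nuclei in high-throughput microscope images with image analysis software, screen run in 1,536-well plates.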

In the case of `O=C(O)c1ccc2c(c1)nc(Nc1cccc(Cl)c1)c1ccncc12` + O=C(O)C(=O)Nc1sc2c(c1C(=O)O)CCNC2 [TCS401] (first compound 0.4 µM, partner dose 1.66667 µM), the cell count (WM115) is reported as 107%, the cell count (WM1716) is reported as 97.4% and the cell count (WM1745) is reported as 89.3%. For the same molecule, the cell count (WM3526) was 88.3%, the cell count (WM3619) was 107% and the cell count (WM451Lu) was 91.5%.

`Cn1nnc2c(C(N)=O)ncn2c1=O` [temozolomide] + Cn1cncc1[C@@](N)(c1ccc(Cl)cc1)c1ccc2c(c1)c(-c1cccc(Cl)c1)cc(=O)n2C [tipifarnib] (first compound 2 µM, partner dose 0.01 µM) gave a cell count (WM115) of 90.6%, a cell count (WM1716) of 87.7% and a cell count (WM1745) of 94.4%. It also gave a cell count (WM3526) of 95.9%, a cell count (WM3619) of 98.6% and a cell count (WM451Lu) of 75.2%.

`O=C(Nc1cc(C(F)(F)F)cc(C(F)(F)F)c1)c1cc(Cl)ccc1O` + Nc1ncn([C@H]2C[C@H](O)[C@@H](CO)O2)c(=O)n1 [decitabine] (first compound 0.016 µM, partner dose 0.1 µM) was tested, and the cell count (WM115) was 85.6%, the cell count (WM1716) was 85.4% and the cell count (WM1745) was 83%. It also gave a cell count (WM3526) of 98.4%, a cell count (WM3619) of 114% and a cell count (WM451Lu) of 88%.

Molecule `O=C(O)[C@@H]1[O][Sb](=[O])([O][Sb]2(=[O])[O][C@H]([C@H](O)CO)[C@H](O)[C@H](C(=O)O)[O]2)[O][C@H]([C@H](O)CO)[C@@H]1O` (some centres not stated) [stibogluconate] + CC1(C)NC(=O)N(c2ccc([N+](=O)[O-])c(C(F)(F)F)c2)C1=O [nilutamide] (first compound 2 µM, partner dose 1 µM) has a cell count (WM115) of 109%, a cell count (WM1716) of 109% and a cell count (WM1745) of 113%. For the same molecule, the cell count (WM3526) was 85.3%, the cell count (WM3619) was 108% and the cell count (WM451Lu) was 98.6%.

`Cn1nnc2c(C(N)=O)ncn2c1=O` [temozolomide] + O=c1cc(-c2cccc3c2Sc2ccccc2S3)oc(N2CCOCC2)c1 [KU55933] (first compound 2 µM, partner dose 1 µM) gave a cell count (WM115) of 103%, a cell count (WM1716) of 88.8% and a cell count (WM1745) of 101%. For the same molecule, the cell count (WM3526) was 98%, the cell count (WM3619) was 105% and the cell count (WM451Lu) was 101%.

In the case of `O=C(O)c1ccc2c(c1)nc(Nc1cccc(Cl)c1)c1ccncc12` + C[C@@H]1CCN(C(=O)CC#N)C[C@@H]1N(C)c1ncnc2[nH]ccc12 [CP690550] (first compound 0.4 µM, partner dose 1 µM), the cell count (WM115) is reported as 122%, the cell count (WM1716) is reported as 94.3% and the cell count (WM1745) is reported as 114%. The cell count (WM3526) was 94.6%, the cell count (WM3619) was 100% and the cell count (WM451Lu) was 92.2%.

`O=C(O)[C@@H]1[O][Sb](=[O])([O][Sb]2(=[O])[O][C@H]([C@H](O)CO)[C@H](O)[C@H](C(=O)O)[O]2)[O][C@H]([C@H](O)CO)[C@@H]1O` (some centres not stated) [stibogluconate] + Cn1cc(/C=C2\C(=O)Nc3cccnc32)c2ccccc21 [GW441756] (first compound 2 µM, partner dose 0.4 µM) showed a cell count (WM115) of 103%, a cell count (WM1716) of 111% and a cell count (WM1745) of 94.7%. For the same molecule, the cell count (WM3526) was 103%, the cell count (WM3619) was 111% and the cell count (WM451Lu) was 102%.

`O=C(Nc1cc(C(F)(F)F)cc(C(F)(F)F)c1)c1cc(Cl)ccc1O` + C#Cc1cccc(Nc2ncnc3cc(OCCOC)c(OCCOC)cc23)c1 [erlotinib] (first compound 0.016 µM, partner dose 0.8 µM) showed a cell count (WM115) of 95.8%, a cell count (WM1716) of 102% and a cell count (WM1745) of 91.8%. It also gave a cell count (WM3526) of 85%, a cell count (WM3619) of 85.2% and a cell count (WM451Lu) of 113%.

`Cc1cc(N2CCOCC2)cc2[nH]c(-c3c(NC[C@@H](O)c4cccc(Cl)c4)cc[nH]c3=O)nc12` + CC(C)CCN1c2nc(Nc3cc(F)c(O)c(F)c3)ncc2N(C)C(=O)C1C [BID1870] (first compound 0.2 µM, partner dose 0.2 µM) was tested, and the cell count (WM115) was 110%, the cell count (WM1716) was 93.2% and the cell count (WM1745) was 76%. The cell count (WM3526) was 87.7%, the cell count (WM3619) was 94.7% and the cell count (WM451Lu) was 91.8%.

`O=C(O)[C@@H]1[O][Sb](=[O])([O][Sb]2(=[O])[O][C@H]([C@H](O)CO)[C@H](O)[C@H](C(=O)O)[O]2)[O][C@H]([C@H](O)CO)[C@@H]1O` (some centres not stated) [stibogluconate] + C=C(c1ccc(C(=O)O)cc1)c1cc2c(cc1C)C(C)(C)CCC2(C)C [Bexarotene] (first compound 2 µM, partner dose 2 µM) gave a cell count (WM115) of 101%, a cell count (WM1716) of 85.8% and a cell count (WM1745) of 78.2%. It also gave a cell count (WM3526) of 96.4%, a cell count (WM3619) of 96.7% and a cell count (WM451Lu) of 78.8%.

For `O=C(O)c1ccc2c(c1)nc(Nc1cccc(Cl)c1)c1ccncc12` + Cc1nc(Nc2ncc(C(=O)Nc3c(C)cccc3Cl)s2)cc(N2CCN(CCO)CC2)n1 [dasatanib] (first compound 0.4 µM, partner dose 0.004 µM), the cell count (WM115) was 88.5%, the cell count (WM1716) was 67.8% and the cell count (WM1745) was 78.1%. It also gave a cell count (WM3526) of 101%, a cell count (WM3619) of 86.1% and a cell count (WM451Lu) of 78.4%.

In the case of `Cc1cc(N2CCOCC2)cc2[nH]c(-c3c(NC[C@@H](O)c4cccc(Cl)c4)cc[nH]c3=O)nc12` + OCCn1cc(-c2cnc3nnn(Cc4ccc5ncccc5c4)c3n2)cn1 [PF04217903] (first compound 0.2 µM, partner dose 1 µM), the cell count (WM115) is reported as 90.3%, the cell count (WM1716) is reported as 102% and the cell count (WM1745) is reported as 90.5%. It also gave a cell count (WM3526) of 88.3%, a cell count (WM3619) of 91.4% and a cell count (WM451Lu) of 112%.
